# According to the supplement of paper PMC11417369:
# The other results are listed elsewhere or left out.
# Test system: PfHDP1 homeodomain (GST-tagged)
# Test: gcPBM binding intensity (ln(normalized median fluorescence intensity)); higher = stronger DNA binding
# How it was run: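 An Agilent 4 × 180k array of primer-extended double-stranded 36-bp intergenic genomic probes, with negative controls, was incubated for 1 h with GST-tagged P. falciparum DNA-binding domains expressed in E. coli. Alexa488 anti-GST antibody detected bound protein, scanned at 488 nm. Binding intensity is the highest Masliner-normalised natural-log median intensity across replicate spots of either probe orientation.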
row,Sequence,gcPBM binding intensity (ln)
1,TAATGTATTATTTAATGTACTTAAAAAATAAATAAA [XGTACX_site3296],6.1
2,AATGAACAGACGAGCACACACACACCCATATATATA [CACACA_site1018],6.99
3,ACCTTTAATAAATACACACACATAAAAAAAATATAT [CACACA_site5086],8.21
4,CACAAATATATACATACACACATATATACGCATATA [CACACA_site395],6.8
5,GGGGAGCTATCTCCTGCACACACAATTTTTTTTTTT [CACACA_site8703],8.18
6,TATTATATGAATAATTGTACGAAATTTAAAAGACAA [XGTACX_site7558],6.74
7,AATGAAAAGAAATAATAAATAAATGATGACCAGCTG [GTGCAC_negctrl_site398],6.54
8,TGATTATCCTTCAGGAGTACATATAATATAATATAT [XGTACX_site1479],6.51
9,AAAAACAAAATTTGGAGTACAGTTATAATATTATTA [XGTACX_site5245],6.74
10,TTATAAAGAAAAAATTGCTTTAAAAGAAAGATTACA [CACACA_negctrl_site960],5.87
11,ATATATATATGAATCACACACAAAAAATATAGAGAT [CACACA_site3913],8.27
12,GCACCAAAAAAAAGACGTACAGTTATATTAAAATAG [XGTACX_site8926],6.7
13,AAATGAACAAGTGGCACACACACATTCTAACTAATT [CACACA_site3203],6.45
14,AACCAAATTTCACCATGTACATATTGATAAATATAT [XGTACX_site1374],6.62
15,ATATGATTTGGATGTAGTACATATTTTTTTATGTTT [XGTACX_site1929],6.49
16,TAAAATAATATATGGTGTACACAAAAGTATAAATAA [XGTACX_site4991],7.26
17,AAAAAAATAATTAACACACACATGTATATCTATATA [CACACA_site3139],6.3
18,ATATAAAAAAAATTTAGTACATATATATATATATAT [XGTACX_site8635],9.33
19,TATATATATATATTATGTACTCATTTATTATCTTTT [XGTACX_site8051],8.95
20,CGGGGGTAGTTTTATGCACACGTTTATTAATGCTTC [CACACA_site5717],10.5
21,ACCAATAATATACATACACACATAAATGTTTATATA [CACACA_site4328],6.77
22,ACATGAATATATACACGTACATATATACATATATAT [XGTACX_site5872],6.57

row,Sequence,gcPBM binding intensity (ln)
1,TGAAAAACTATCAGAGTGCATATATAGCTCGATACA,7.91
2,TTTTATGTTTATGTGGTGCATGTTTTGAAGAAAATA [GTGCAC_site9616],8.94
3,TATAAACCGACGAAAACACACATATGTAAATATATA [CACACA_site491],6.87
4,AAACCTATGTATATTATACACACTCCAAACTATTAT [CACACA_site8536],6.86
5,ATTACCATATTTTGTACACACATCTTTATCTCAATA [CACACA_site3217],7.45
6,TAAAAATTAAAGTGTACACATATATATATATATATA [CACACA_site4781],9.37
7,AAAAAAAAAAAGCACACACACATATGCGTATATATA [CACACA_site954],6.55
8,TTATTAAAGGAAAAATGTACATATAAATGAATATGT [XGTACX_site23],6.19
9,GAAAAAAAACACATTGTGCACTTTTCCTTAAGTATA [GTGCAC_site9475],8.51
10,ATTAAATATATTTTGCGTACACAAAAAAATACGTTC [XGTACX_site3862],6.77
11,ATAATATTTTATGGTTGTACTTTTAGTTCTTTTTTT [XGTACX_site5756],6.41
12,TACGTGAAGTTATATACACACATAAATATGTCTGTA [CACACA_site7463],6.59
13,TTAAAGTATAACTGTACATGCGAGTAAAAGAATGAC [TGCATGCA_site899],7.57
14,GGAGAAAAAAAAAAAAAACACACGGTACATTCAAAG [CACACA_site1503],6.32
15,TTTTTTTCGTATATTACACACTATATATAGAAATTA [CACACA_site298],6.61
16,TATGTTTTTCGGTATGCATGCATATGCTTAATAATA [TGCATGCA_site184],7.03
17,AATATTAAACAAATGAAAAAAAAATATATATTATAT [CACACA_negctrl_site742],6.55
18,TTTAATTAAAATATATGTACATATATATATATATAT [XGTACX_site4517],9.42
19,AATATATATATGATTATATATATATATATATATATA [GTGCAC_negctrl_site290],9.41
20,AAAATAACACAAATGGGTACATATTATATTAAATAA [XGTACX_site7027],6.3
21,AAATTATCCAAAAATTGTACTTAAAACAACATAAAA [XGTACX_site6238],6.18
22,AAAGAAGGTAAACACACACACACACCGACAAAAAAA [CACACA_site9255],6.78

row,Sequence,gcPBM binding intensity (ln)
1,ACCATTTGTAGGTAAACACACATTATTCTTAATATC [CACACA_site5453],6.37
2,TTTCTCTTATTCCAATCTATAATAAGTATCAATATT [CACACA_negctrl_site179],6.55
3,ATATATTCATTTTTATGTACGTAAATTGTAAATTGG [XGTACX_site8242],6.8
4,AAAATAATAATAAAAAGTACATGTGTATATAATAAA [XGTACX_site754],7.25
5,TGCATTATTTTATGAAGTACATATGAACAAAAAATT [XGTACX_site2185],6.5
6,AACACCCAAAAACACACACACATACATACATACATA [CACACA_site4411],6.81
7,AACATTAATTTCCTATGTACTTAATATATTGTTTTT [XGTACX_site4440],6.56
8,ATTTATATATATGTATGTACGTATGTGTGTATATGT [XGTACX_site7587],7.82
9,CTTTCCCTATATTGCTGTACATGTATTCAAAAAACA [XGTACX_site353],7.01
10,CGCGAACATACATACACACACATATATATATCTGTA [CACACA_site4277],6.98
11,TACACAAAAATAAACACACACACATATATATATATA [CACACA_site1000],9.26
12,TATATATTCCTCCATAGTACAATAATAAAGATAAAA [XGTACX_site5785],6.47
13,ACCAATTTGACAAACTGTACAAAAAAAATATTAAAA [XGTACX_site1186],6.24
14,TTTTATAAAGAACACAGACACACAAAGAAAGAACCA [CACACA_site4174],7.07
15,ATAAAAAGCTAAAAAGTGCAAAAAGTAAATATTTAA,8.61
16,TTTATTTAAAATAAGTGTACTAGAAAAATTAAGCAG [XGTACX_site4982],6.85
17,ATTCCTCATTAATATTCTTATTTTTTAATTCACATT [XGTACX_negctrl_site329],6.72
18,TAAAAGGAGACATATACACACATATATATATATATA [CACACA_site5539],9.29
19,TGTGATTATGATAAAAGTACAGAAATAAATATACTA [XGTACX_site38],6.15
20,TTATGTATATTATAAATTAATACCTTTAAATTAATA [CACACA_negctrl_site67],5.95
21,ATAATCCTGAAACACACACACACACCCATAAATAAA [CACACA_site481],6.92
22,TATAACTTATTTTTTAGTACATATTATAGTTCATTT [XGTACX_site8649],6.32

row,Sequence,gcPBM binding intensity (ln)
1,TATATATACTTAGAAACACACAAAAATATTTTATAA [CACACA_site2578],6.55
2,TAATTAGTTTTTACTTTTTTTTTTTTTTTTCTATAT [CACACA_negctrl_site1024],5.76
3,TATTATAAATAAATAGAAAAAAAAATGATAAATGGA [CACACA_negctrl_site865],6.48
4,ATAATAAATACACTAGTGCAAAATAATATATGTACT [GTGCAC_site9707],9.79
5,TTTATTTATATAATTACACACATATATACTCAAATG [CACACA_site5543],6.67
6,ATATGTACTATACGCACACACACTCACATATTTATA [CACACA_site7510],8.15
7,ATAGGGTTTCTACTTTAACATTTTTGAAATATTATA [GTGCAC_negctrl_site260],6.53
8,TTCTTAATTCATACCATCAAAACATTTATTCATATC [CACACA_negctrl_site43],6.3
9,TAAAAATGATCAAAGGGTACAGTATTAATTAAAAAA [XGTACX_site1079],6.5
10,TTTACTTTTTTTATATATTATTTATTATATAATATA [CACACA_negctrl_site211],6.48
11,CTTAAACTTTTAAATACACACATACAGACATACACA [CACACA_site6401],6.92
12,TACATATATATAATATATATATCATCATATTTTCTT [XGTACX_negctrl_site478],6.39
13,ATATACAGAAAAAATTAAAATAAATATGCAAAACAA [CACACA_negctrl_site704],7.47
14,AATATACGATTGTCATTCATACATTGTTAACATAGT [CACACA_negctrl_site1151],6.42
15,TACAATGAACATGAAACACACAAAAAAAAAAAAAAA [CACACA_site1544],6.52
16,ACATAGTAAATATTATGTACATAATATATACATTTA [XGTACX_site7500],6.46
17,TTTTGCCTGAACAATGCATGTTATTTTTATTTTTTT [TGCATGCA_site673],6.66
18,TCATTTAAGTCATATTGAAATATGCATTATTCAAAA [CACACA_negctrl_site958],6.41
19,TTTATATTTCATTTGTTATTTTTCTTGGTTCTATAT [TGCATGCA_negctrl_site23],6.6
20,TTTTTTTTTTTTTTTTTTATATTTCATAATTTCATT [XGTACX_negctrl_site579],6.22
21,AATATATACACATGCGCACACACAAGTGGGAAATTT [CACACA_site8527],7.72
22,AAATGTGTTAATGTGCGTACACATATATATAATATT [XGTACX_site2792],6.66
